Reference: the supplement of paper PMC8728848
The other results are listed elsewhere or left out.

How the values were obtained:
Assay in all cases: glycan array binding signal (z-score within array); higher = stronger binding
Details in all cases: glycan notation: IUPAC condensed, linker removed
[1] = target: Fuc(a1-2)Gal
Method in brief: (§1)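 Glycan array binding is given as a within-array Z-score, which can be read as non-binding when negative. The arrays, 3228 of them, came from the Consortium for Functional Glycomics database and were retained only where the protein sequence was available. Z-scores were averaged across arrays of the same protein sequence at different concentrations or buffers and across linkers.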

[2] = target: Fuc(a1-2)Gal(b1-3)GalNAc
Method in brief: as §1

[3] = target: Fuc(a1-2)Gal(b1-3)GalNAc(b1-3)Gal
Method in brief: as §1

[4] = target: Fuc(a1-2)Gal(b1-3)GalNAc(b1-3)Gal(a1-4)Gal(b1-4)Glc
Method in brief: as §1

[5] = target: Fuc(a1-2)Gal(b1-3)GalNAc(b1-4)[Neu5Ac(a2-3)]Gal(b1-4)Glc
Method in brief: as §1

[6] = target: Fuc(a1-2)Gal(b1-3)GlcNAc
Method in brief: as §1

[7] = target: Fuc(a1-2)Gal(b1-3)GlcNAc(b1-3)Gal(b1-4)Glc
Method in brief: as §1

[8] = target: Fuc(a1-2)Gal(b1-3)[Fuc(a1-4)]GlcNAc
Method in brief: as §1

[9] = target: Fuc(a1-2)Gal(b1-4)Glc
Method in brief: as §1

[10] = target: Fuc(a1-2)Gal(b1-4)GlcNAc
Method in brief: as §1

[11] = target: Fuc(a1-2)Gal(b1-4)GlcNAc(b1-3)Gal(b1-4)GlcNAc
Method in brief: as §1

[12] = target: Fuc(a1-2)Gal(b1-4)GlcNAc(b1-3)Gal(b1-4)GlcNAc(b1-3)Gal(b1-4)GlcNAc
Method in brief: as §1

[13] = target: Fuc(a1-2)Gal(b1-4)[Fuc(a1-3)]GlcNAc
Method in brief: as §1

[14] = target: Fuc(a1-2)Gal(b1-4)[Fuc(a1-3)]GlcNAc(b1-3)Gal(b1-4)[Fuc(a1-3)]GlcNAc
Method in brief: as §1

[15] = target: Fuc(a1-2)Gal(b1-4)[Fuc(a1-3)]GlcNAc(b1-3)Gal(b1-4)[Fuc(a1-3)]GlcNAc(b1-3)Gal(b1-4)[Fuc(a1-3)]GlcNAc
Method in brief: as §1

[16] = target: Fuc(a1-2)GlcNAc
Method in brief: as §1

[17] = target: Fuc(a1-2)[Gal(a1-3)]Gal
Method in brief: as §1

[18] = target: Fuc(a1-2)[Gal(a1-3)]Gal(b1-3)GlcNAc
Method in brief: as §1

[19] = target: Fuc(a1-2)[Gal(a1-3)]Gal(b1-4)Glc
Method in brief: as §1

[20] = target: Fuc(a1-2)[Gal(a1-3)]Gal(b1-4)GlcNAc
Method in brief: as §1

[21] = target: Fuc(a1-2)[Gal(a1-3)]Gal(b1-4)[Fuc(a1-3)]GlcNAc
Method in brief: as §1

[22] = target: Fuc(a1-2)[Gal(a1-4)]Gal(b1-4)GlcNAc
Method in brief: as §1

[23] = target: Fuc(a1-2)[GalNAc(a1-3)]Gal
Method in brief: as §1

[24] = target: Fuc(a1-2)[GalNAc(a1-3)]Gal(b1-3)GlcNAc
Method in brief: as §1

[25] = target: Fuc(a1-2)[GalNAc(a1-3)]Gal(b1-4)Glc
Method in brief: as §1

[26] = target: Fuc(a1-2)[GalNAc(a1-3)]Gal(b1-4)GlcNAc
Method in brief: as §1

[27] = target: Fuc(a1-2)[GalNAc(a1-3)]Gal(b1-4)[Fuc(a1-3)]GlcNAc
Method in brief: as §1

[28] = target: Fuc(a1-2)[GalNAc(a1-4)]Gal(b1-4)GlcNAc
Method in brief: as §1

[29] = target: Fuc(a1-2)[GalNAc(b1-3)]Gal
Method in brief: as §1

[30] = target: Fuc(a1-3)GlcNAc
Method in brief: as §1

B1: DCAL1 (Homo sapiens), Q8IZS7 (protein)
chain: MVSNFFHVIQVFEKSATLISKTEHIGFVIYSWRKSTTHLGSRRKFAISIYLSEVSLQKYDCPFSGTSFVVFSLFLICAMAGDVVYADIKTVRTSPLELAFPLQRSVSFNFSTVHKSCPAKDWKVHKGKCYWIAETKKSWNKSQNDCAINNSYLMVIQDITAMVRFNI
[1]
  glycan array binding signal (z-score): -0.222
[2]
  glycan array binding signal (z-score): -0.207
[3]
  glycan array binding signal (z-score): -0.131
[4]
  glycan array binding signal (z-score): -0.16
[5]
  glycan array binding signal (z-score): -0.124
[6]
  glycan array binding signal (z-score): -0.196
[7]
  glycan array binding signal (z-score): -0.137
[8]
  glycan array binding signal (z-score): -0.258
[9]
  glycan array binding signal (z-score): -0.259
[10]
  glycan array binding signal (z-score): -0.108
[11]
  glycan array binding signal (z-score): -0.039
[12]
  glycan array binding signal (z-score): -0.202
[13]
  glycan array binding signal (z-score): -0.209
[14]
  glycan array binding signal (z-score): -0.199
[15]
  glycan array binding signal (z-score): -0.148
[16]
  glycan array binding signal (z-score): -0.188
[17]
  glycan array binding signal (z-score): -0.115
[18]
  glycan array binding signal (z-score): -0.151
[19]
  glycan array binding signal (z-score): -0.234
[20]
  glycan array binding signal (z-score): -0.172
[21]
  glycan array binding signal (z-score): -0.216
[22]
  glycan array binding signal (z-score): -0.254
[23]
  glycan array binding signal (z-score): -0.2
[24]
  glycan array binding signal (z-score): -0.174
[25]
  glycan array binding signal (z-score): -0.191
[26]
  glycan array binding signal (z-score): -0.203
[27]
  glycan array binding signal (z-score): -0.107
[28]
  glycan array binding signal (z-score): -0.139
[29]
  glycan array binding signal (z-score): -0.13
[30]
  glycan array binding signal (z-score): -0.23
